According to PubChem BioAssay AID540267 (National Center for Advancing Translational Sciences (NCATS), 2011):
Among all 340,000 compounds or so, about 530 (0.16%) were called active. The shares of active, inactive and inconclusive entries below differ from those in the screen. Cut-off read from the data, not from the text of the source: active = activity change below about -80%; inconclusive = between about -30% and that limit; inactive = weaker than that.

Assay: Small Molecules that selectively kill Giardia lamblia: qHTS;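 note: parasites exposed to compound for two days anaerobically before the ATP read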
Conditions: Giardia lamblia trophozoite viability; at 7.66 µM; hits give low values
Summary of the method: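 Trophozoites 100 cells/well + cpd; 48 hrs, 37 deg C, anaerobic. ATPLite 1-Step added, 15-30 min RT, luminescence read (ATP-based viability).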
% is set by controls: 0 for no effect and ±100 for the full control effect.

Compound | activity change
Cc1ccc(NC(=S)NNc2ccc([N+](=O)[O-])cc2S(=O)(=O)Nc2ccccc2C(=O)O)cc1C | inconclusive: -51.2% [inhibitor]
CC1(C)Cc2c(cnn2-c2ccccc2)C(NC(=O)c2ccc[n+]([O-])c2)C1 (stereo unspecified) | inactive: 9.39%
O=C(NC(=S)NC1CCCCC1)c1ccc(F)cc1 | inactive: 6.01%
O=C(Nc1ccccc1)c1cn(CCBr)cn1 | inconclusive: -30% [inhibitor]
Cc1cc(C)n2c(Nc3ccc4c(c3)OCCO4)c(-c3ccc(C)o3)nc2n1 | inconclusive: -33.7% [inhibitor]
COc1ccccc1N1CCN(CCCC(=O)c2ccc(F)cc2)CC1 | inactive: -19.4%
Cc1[nH]nc(SCC(=O)N2CCCC2)c1[N+](=O)[O-] | inconclusive: -35.2% [inhibitor]
CCC(C)c1ccc(NC(=O)c2ccco2)cc1 (stereo unspecified) | inconclusive: -53.8% [inhibitor]
O=C(CCN1C(=O)/C(=C\c2ccccc2)SC1=S)NNC(=O)c1cccnc1 | inconclusive: -38% [inhibitor]
Cn1nnc(NC(=S)NC(=O)Cc2ccccc2)n1 | inactive: -8.99%
Cc1ccc(NC(=O)CCc2ccc(C)o2)c(C)c1 | inconclusive: -32.8% [inhibitor]
CN(C)c1ccc(CNc2ccc3c(c2)ncn3C(C)(C)C)cc1 | inactive: 19.7%
Cc1cc(=O)[nH]c(SCC(=O)NN(c2ccccc2)c2ccccc2)n1 | inconclusive: -31.2% [inhibitor]
COc1ccc(OCC(=O)NNC(=O)Cn2c(=O)cnc3ccccc32)cc1 | inactive: -8.23%
O=C(C[C@@H]1C/C=C\C[C@H](NC(=O)OCC2c3ccccc3-c3ccccc32)C(=O)OC[C@H]2CCCN2C1=O)N[C@H](CO)Cc1ccccc1 | inconclusive: -31.1% [inhibitor]
Cc1ccc([N+](=O)[O-])c(C(=O)Nc2cccnc2Cl)c1 | inconclusive: -59.2% [inhibitor]
COc1ccc(/C=N/NC(=O)CO/N=C(\C)c2cccs2)cc1 | inconclusive: -30% [inhibitor]
Cc1ccc(-c2nc3ncccc3o2)cc1NC(=O)c1ccc([N+](=O)[O-])o1 | active: -90.9%
CC(=O)N1CCC(C(=O)N2CCN(S(=O)(=O)c3ccc(F)cc3)CC2)CC1 | inconclusive: -30.1% [inhibitor]
COc1ccc(-c2csc(-c3ccc(C(=O)O)cc3)n2)cc1 | inconclusive: -37.8% [inhibitor]
NC(=O)[C@@H]1CCCNc2c(I)cc([N+](=O)[O-])cc2C(=O)N[C@@H](CCC(=O)O)C(=O)N[C@@H](CO)C(=O)N1 | inconclusive: -38.6% [inhibitor]
Cc1cnc(C(=O)OCC(=O)c2ccc(C)s2)cn1 | inconclusive: -34% [inhibitor]
CC(=NO)c1ccc2c(c1)Cc1cc([N+](=O)[O-])ccc1-2 | inconclusive: -40.7% [inhibitor]
O=[N+]([O-])c1ccc(CN2CCN(c3ccc(F)cc3)CC2)o1 | inconclusive: -71.9% [inhibitor]
O=C(/C=C/c1ccccc1)C1C(=O)c2ccccc2C1=O | inconclusive: -44.4% [inhibitor]
CCOCCN(C(=O)c1ccccc1Cl)c1cccc(C)c1C | inconclusive: -33.7% [inhibitor]

Compound | activity change
Cc1nn(-c2ccccc2Cl)c(Cl)c1/C=N/Nc1nc2ccccc2s1 | inconclusive: -38.6% [inhibitor]
COC1=C/C(=C/c2c(N)n3nc(-c4ccc(C)cc4)sc3nc2=O)C=CC1=O | inconclusive: -31% [inhibitor]
COc1ccc(NC(=O)CCC(=O)c2ccc(Cl)cc2)cn1 | inconclusive: -34.2% [inhibitor]
O=[N+]([O-])c1ccc(Oc2cccc(Br)c2)c2ccncc12 | inconclusive: -52% [inhibitor]
NC1=NC[C@H](Cc2ccc(O)cc2)N1CC1CCCCC1 | inconclusive: -35.1% [inhibitor]
Cc1ccc(-c2nc3n(n2)Cc2ccccc2-3)cc1 | inconclusive: -56.7% [inhibitor]
C=CCNC(=O)c1ccc2c3n(nc2c1)-c1ccccc1CO3 | inconclusive: -56% [inhibitor]
Cn1nccc1NC(=O)COCC(=O)O | inconclusive: -33.7% [inhibitor]
CCC(C)(C)n1nnnc1C(c1ccc(C)cc1)N1CCSCC1 (stereo unspecified) | inconclusive: -35.6% [inhibitor]
COc1ccc(C2=CC(c3sccc3C)n3nnnc3N2)cc1 (stereo unspecified) | inconclusive: -31.5% [inhibitor]
COc1ccc(-n2nc3ccc(NC(=O)c4c(OC)cccc4OC)cc3n2)cc1 | inconclusive: -37.6% [inhibitor]
COc1ccc2c3n([n+]([O-])c2c1)CCN=C3c1ccc(C)cc1 | active: -90.5%
C/C=C/Cn1c(Br)nc2c1c(=O)[nH]c(=O)n2C | inactive: 1.06%
Cc1cccc(CN2CCC(CNC(=O)Cn3ncc4c([nH]c5ccccc54)c3=O)CC2)c1 | inconclusive: -35.6% [inhibitor]
COc1ccc(C(CNC(=O)c2cccc(NS(=O)(=O)c3ccccc3)c2)N2CCCC2)cc1 (stereo unspecified) | inactive: 8.01%
CS(=O)(=O)N1CCN(C(=O)c2cc(-c3cccs3)nc3ccccc23)CC1 | inactive: -4.65%
O=C(NC(=S)Nc1ccc(N2CCOCC2)cc1)c1ccco1 | inactive: -27.1%
CCN1CCN(C(c2ccc(F)cc2)c2nnnn2Cc2cccs2)CC1 (stereo unspecified) | inactive: 10.8%
O=C(CCl)N(c1ccc(Cl)cc1)c1c[nH]c2ccccc12 | inactive: 27.2%
O=C(CCc1nc2ccccc2s1)OCc1ccccc1 | inconclusive: -33.9% [inhibitor]
CCOc1ccc(N(CC(=O)Nc2cc(OC)cc(OC)c2)S(=O)(=O)c2c(C)[nH]c(=O)[nH]c2=O)cc1 | inconclusive: -35.2% [inhibitor]
O=C(Nc1ccc(-n2cnnn2)cc1)c1cc(S(=O)(=O)N2CCCC2)ccc1Cl | inactive: 2.59%
O=c1c(S(=O)(=O)c2ccc(Cl)cc2)cn(Cc2cccc(F)c2)c2ccc(F)cc12 | inconclusive: -39% [inhibitor]
O=C(COC(=O)c1ccccc1)Nc1ncc([N+](=O)[O-])s1 | inconclusive: -75.3% [inhibitor]
COC(=O)c1cc(NC(=O)c2c(-c3c(Cl)cccc3Cl)noc2C)ccc1N1CCOCC1 | inconclusive: -31.1% [inhibitor]
COc1ccc2c(c1)NC(c1ccc(N(C)C)cc1)c1cccn1-2 (stereo unspecified) | inactive: 2.9%

Compound | activity change
CCOC(=O)c1c(-c2ccccc2)csc1NC(=O)/C(C#N)=C\c1ccc(O)c(OC)c1 | inactive: -18.4%
O=C(Nc1ccc2c(c1)OCCO2)Nc1ccc2c(c1)OCO2 | inconclusive: -55.1% [inhibitor]
Cc1onc(NC(=O)c2ccc(Cl)cc2Cl)c1Br | inconclusive: -30.3% [inhibitor]
CN1N/C(=C\c2ccccc2)N=C2C(=O)N(C)C(=O)N=C21 | active: -105%
CCOC(=O)c1c(-c2ccc(C)o2)csc1NC(=O)CN1CCC(C(N)=O)CC1 | inactive: 34.5%
O=C1c2ccccc2C(=O)C1c1cc2ccccc2cn1 | inconclusive: -47.8% [inhibitor]
CCN(CC)C(=O)CSc1ccc(C(F)(F)F)cc1[N+](=O)[O-] | inconclusive: -33.7% [inhibitor]
CNC(=S)NNC(=O)c1cccc(C(F)(F)F)c1 | inactive: 0.179%
O=C(c1cnn2c1NC(c1ccc(Br)cc1)CC2C(F)(F)F)N1CCN(C23CC4CC(CC(C4)C2)C3)CC1 (stereo unspecified) | inconclusive: -34.5% [inhibitor]
O=C(Nc1cccc(NC(=O)c2ccc([N+](=O)[O-])o2)c1)c1ccco1 | active: -84.7%
CCCC(=O)Nc1ccc(-c2csc(N/N=C\c3ccncc3)n2)cc1 | inconclusive: -31% [inhibitor]
O=c1[nH]c2cccnc2n1-c1ccc([N+](=O)[O-])cc1 | inconclusive: -54.8% [inhibitor]
COc1ccc(-c2nc(Cn3c(SCc4cccc(F)c4)nc4ccncc43)c(C)o2)cc1OC | inactive: -3.14%
CCCCc1ccc(-c2nc(-c3ccncc3)no2)cc1 | inconclusive: -33.2% [inhibitor]
N#C/C(=C\c1cccc([N+](=O)[O-])c1)c1ccccn1 | inconclusive: -33.5% [inhibitor]
CC(=O)Oc1ccc(C(=O)Nc2cc(C)ccc2NC(=O)COc2ccccc2)cc1 | inactive: -5.5%
Nc1ccc(NC(=O)c2cccc(C(=O)Nc3ccc(N)cc3Cl)c2)c(Cl)c1 | inactive: 28.1%
COc1cc(C)ccc1OCCOCCOc1ccccc1[N+](=O)[O-] | inconclusive: -30.4% [inhibitor]
O=C(NCCC1CCCCN1S(=O)(=O)c1ccccc1)C(=O)Nc1ccc(F)cc1F (stereo unspecified) | inconclusive: -33.3% [inhibitor]
COC(=O)C1=C(C(=O)OC)[C@@H]2N(Cc3ccccc3)c3ccccc3[C@@]23C[C@@H](C(=O)OC)N(C(=O)c2cccs2)C3=N1 | inactive: 6.16%
CCOc1ccc(-c2nc(C)c(C(C)=O)n2O)cc1 | inconclusive: -34.6% [inhibitor]
CCOc1ccc(CCNC(=O)c2ccc(C)c(S(=O)(=O)N3CCOCC3)c2)cc1OCC | inconclusive: -32.6% [inhibitor]
COc1ccccc1C1CC(=O)Oc2cc(C)c(Br)c(C)c21 (stereo unspecified) | inconclusive: -36.3% [inhibitor]
CCOc1ccc(N(CC(=O)N/N=C(\C)c2cccc(NC(C)=O)c2)S(=O)(=O)c2ccccc2)cc1 | inconclusive: -33% [inhibitor]
